Measured values as given in article PMC4336329 (PLoS ONE, 2015).
Hit rate of the full screen: of about 310,000 compounds, about 14,000 (4.5%) showed an effect of 50% or more. Effects have a minus sign here. Some of the results follow.

What follows are compounds tested against human ether-à-go-go-related gene (hERG) potassium channel (human, UniProt Q12809) (assay: primary screen, population patch clamp on CHO cells stably expressing hERG).
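Further: peak tail current of the secondary pulse compared with the same well before compound.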

Sequence of human ether-à-go-go-related gene (hERG) potassium channel (Q12809 whole entry, looked up): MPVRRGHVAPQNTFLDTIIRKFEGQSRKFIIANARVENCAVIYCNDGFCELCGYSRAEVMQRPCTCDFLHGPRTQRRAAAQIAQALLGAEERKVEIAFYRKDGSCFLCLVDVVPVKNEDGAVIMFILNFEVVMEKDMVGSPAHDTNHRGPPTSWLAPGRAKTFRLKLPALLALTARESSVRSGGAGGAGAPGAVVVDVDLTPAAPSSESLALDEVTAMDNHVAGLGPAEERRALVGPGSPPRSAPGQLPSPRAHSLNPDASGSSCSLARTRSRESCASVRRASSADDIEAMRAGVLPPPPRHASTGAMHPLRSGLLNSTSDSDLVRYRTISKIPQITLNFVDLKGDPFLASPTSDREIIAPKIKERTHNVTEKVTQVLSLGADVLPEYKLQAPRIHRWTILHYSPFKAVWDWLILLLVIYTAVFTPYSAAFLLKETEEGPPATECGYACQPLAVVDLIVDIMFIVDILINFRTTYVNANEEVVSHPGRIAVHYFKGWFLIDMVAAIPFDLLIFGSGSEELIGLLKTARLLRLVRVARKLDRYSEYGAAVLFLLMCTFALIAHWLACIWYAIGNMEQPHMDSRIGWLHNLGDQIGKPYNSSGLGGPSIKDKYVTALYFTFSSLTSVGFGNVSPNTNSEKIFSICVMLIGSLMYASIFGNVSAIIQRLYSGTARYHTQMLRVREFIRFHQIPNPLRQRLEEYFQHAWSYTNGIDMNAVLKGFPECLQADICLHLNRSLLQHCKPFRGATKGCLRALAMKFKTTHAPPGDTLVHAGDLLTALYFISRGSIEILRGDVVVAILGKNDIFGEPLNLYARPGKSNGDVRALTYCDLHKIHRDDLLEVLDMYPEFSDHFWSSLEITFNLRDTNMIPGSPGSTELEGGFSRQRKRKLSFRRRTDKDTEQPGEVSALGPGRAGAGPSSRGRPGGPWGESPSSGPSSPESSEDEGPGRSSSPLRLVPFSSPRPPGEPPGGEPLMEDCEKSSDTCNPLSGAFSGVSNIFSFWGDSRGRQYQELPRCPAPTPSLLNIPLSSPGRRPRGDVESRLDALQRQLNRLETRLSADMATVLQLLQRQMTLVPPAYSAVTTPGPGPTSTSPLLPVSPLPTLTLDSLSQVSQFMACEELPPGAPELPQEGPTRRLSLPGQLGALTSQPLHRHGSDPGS

Row | SMILES | hERG current change (%, negative = inhibition) at 10uM
1 | O=C(c1cc2ccccc2cc1O)N1CCCC1 | 22.4%
2 | Cc1ccc(SCCNC(=O)CN(c2ccc3c(c2)OCO3)S(C)(=O)=O)cc1 | -20.4%
3 | CC1CCN(C(=O)CSc2nc3[nH]ncc3c(=O)[nH]2)CC1 | 11.3%
4 | Cc1ccc(/C=N/NC(=O)C2CCN(Cc3ccc(F)cc3Cl)CC2)o1 | -34.9%
5 | O=C(c1ccc(NS(=O)(=O)c2cccc(C(F)(F)F)c2)cc1)N1CCCC1 | -41.8%
6 | Cc1cc(=O)[nH]c(-c2ccc(C(F)(F)F)cc2)n1 | 3.13%
7 | Cc1c(NC(C)C)c(=O)n(-c2ccccc2)n1C.Cl | -1.21%
8 | Cc1cccc(C(=O)NNC(=O)C23CC4CC(CC(C4)C2)C3)c1O | 20.6%
9 | COc1ccc(/C=C(\NC(=O)c2ccc([N+](=O)[O-])cc2)C(=O)NCCN2CCOCC2)cc1 | -70.7%
10 | CCN1c2ccccc2-c2nc3ccccc3n2C1c1cccnc1 (centres unmarked) | -24.8%
11 | COc1ccc(C2=NOC(C(=O)Nc3c(C)n(C)n(-c4ccccc4)c3=O)C2)cc1OC (centres unmarked) | 14.2%
12 | COc1cc(OC)c(C(=O)OCC(=O)N(Cc2ccccc2)C(C)(C)C)cc1OC | 2.44%
13 | CCN(CC)c1nc2c(c(=O)[nH]c(=O)n2C)n1CCOc1ccccc1 | 10.3%
14 | COCC(C)N=C1NN=C(c2c[nH]c3ccccc23)CS1 (centres unmarked) | 4%
15 | Cc1ccc(C(=O)O/N=C/c2c(Cl)n(C)c3ccccc23)cc1 | 16.2%
16 | Cc1ccc(NC(=O)C(Cc2ccccc2)NC(=O)OCc2ccccc2)cc1C (centres unmarked) | -5.74%
17 | CCN1CCN(Cc2ccc(NC(=O)Nc3ccccc3Cl)cc2)CC1 | -22.8%
18 | O=C(NCC(=O)N(c1ccccc1)C(C(=O)NC1CCCCC1)c1ccncc1)c1ccco1 (centres unmarked) | 5.92%
19 | CCC(Sc1nc2cc(OC)c(OC)cc2c(=O)n1CCc1ccc(OC)c(OC)c1)C(=O)NCCOC (centres unmarked) | 17.6%
20 | Cc1cc(C)c(C(=O)OCCNC(=O)c2cccnc2)cc1C | -17.3%
21 | CC1(c2nnc(-c3ccc(Cl)cc3)o2)CC(c2cccc(Cl)c2)=NO1 (centres unmarked) | 13.7%
22 | COc1ccccc1NC(=O)CSc1sc2c(O)cc(=O)[nH]c2c1C#N | -4.86%

Row | SMILES | hERG current change (%, negative = inhibition) at 10uM
23 | O=c1c2ccccc2nc(-c2ccco2)n1-c1ccc(Br)cc1 | 4.85%
24 | O=C1/C(=C\c2cc([N+](=O)[O-])ccc2O)SC(=S)N1Cc1ccc(Cl)cc1 | 28.8%
25 | Cc1cc(C)c2cc(C)c3nnc(SCC(=O)NCc4ccc5c(c4)OCO5)n3c2c1 | -22.5%
26 | Cc1nc2c3ccccc3nc(NNC(=O)CCC(=O)NC3CCCC3)n2n1 | -39.8%
27 | CC1=[N+](C)N(c2ccccc2)C(=O)C1N=Cc1c(Cl)cccc1Cl (centres unmarked) | -38.4%
28 | C=CCNC(=O)c1onc(CSc2ccc(F)c(F)c2)c1C(=O)O | 22.4%
29 | COc1ccc(NC(=O)N2CCc3cc(OC)c(OC)cc3C2)cc1 | 8.36%
30 | CCCCN1CC[C@H]2C=CC[C@@H](C(=O)N3CCOCC3)[C@H]2C1=O | 22.7%
31 | CCCCCCN1C2=NCCCN2c2ccccc21.Cl | -78.3%
32 | Cc1cccc(S(=O)(=O)c2c(C)cc(C)[nH]c2=O)c1 | 15.3%
33 | CS(=O)(=O)N(CC(=O)NC1CCCCCC1)Cc1ccccc1 | -1.26%
34 | CCCCOc1ccccc1/C=N/NC(=O)CC#N | 13.1%
35 | Cc1cccc(NC(=O)COC(=O)c2ccccc2SCC(=O)N2CCCC2)c1 | -7.14%
36 | COc1ccc(CC(CC(=O)O)C(=O)Nc2ccccc2)cc1 (centres unmarked) | 8.09%
37 | CC(OC(=O)c1ccc(-n2cnnn2)cc1)C(=O)Nc1ccccc1F (centres unmarked) | -23.2%
38 | C=CCn1c(SCC(=O)CC(=O)OCC)nc2cc(C(=O)N3CCC(C(N)=O)CC3)ccc2c1=O | 13.7%
39 | CN(C)N1C(N)=C(C#N)C(c2ccccc2F)C2=C1CC(C)(C)CC2=O (centres unmarked) | 5.46%
40 | Cc1cnc2cc(Cl)ccc2c1SCC(=O)O | 12.3%
41 | CC(=O)c1cc(C#N)c(SCc2ccncc2)nc1C | -8.93%
42 | Cc1c(C(=O)N2CCN(c3ccccc3F)CC2)oc2c1C(=O)CC(C)(C)C2 | -3.95%
43 | C=CCn1c(SCC(=O)Nc2ccc(OC)cc2)nc2ccccc2c1=O | 8.2%
44 | Cn1c(=O)c2c(nc(CN3CCC(C(N)=O)CC3)n2Cc2c(F)cccc2Cl)n(C)c1=O | -3.93%
